Assay results as given in the supplement of paper PMC4466236.
The full ranking holds about 33,000 sequences; the median of “E-score (dimensionless, -0.5 to 0.5)” is about -0.058, and the highest 2% start at about 0.35. This is one part of the list.

system: MvaT; assay: PBM 8-mer E-score (mean of HK and ME arrays) (E-score (dimensionless, -0.5 to 0.5)); higher = stronger relative binding preference; most listed sequences are background and not binding sites
How it was run: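 Full-length P. aeruginosa MvaT carrying an N-terminal glutathione S-transferase tag was tested by protein binding microarray following a previously described protocol. Two universal double-stranded 60-mer arrays, ME and HK, were used, each with a constant 25-mer primer region and a variable 35-mer region covering all 8-mers. The rank-based E-score is the mean of the two arrays, parsed with a custom script. Its range runs from -0.5 to 0.5 for each 8-mer.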

Sequence	PBM 8-mer E-score
GAATTTTA	0.254
ATGTGAGG	-0.0895
ACTTGCCA	0.0498
CTCATAGC	-0.173
ACTAGAAC	0.167
GGTACATA	0.123
GATCGATA	0.219
ATTTATTC	0.295
ATTGGGTA	0.0919
AATCGCAC	0.0897
AACACGAT	0.0957
CCACAGAA	-0.0553
GAAAACGC	0.0943
GGCCCTTA	-0.232
ACGTAATA	0.29
CTACCCAG	-0.156
CCGCATCC	-0.14
TAGCCTGA	-0.21
CTGAAGCA	-0.235
ACAAAAGG	0.0348
AGGGTTCC	-0.308
CCGGCGAC	-0.147
ACAATAAC	0.324
GCAACTCA	0.0297
CGGTTACG	-0.105

Sequence	PBM 8-mer E-score
CTCTTCGC	-0.138
CAGGGGAG	-0.312
ATTATAGA	0.331
CACTTAGG	-0.145
GGTTAGAC	-0.0626
AACCTCGG	-0.178
CTGCTCGC	-0.223
CTGGATAC	-0.107
CGCGCGGA	-0.0938
CTCGCCTC	-0.301
CTTAGAAA	0.216
CAGAGACC	-0.192
AATAGAAG	0.0707
TAGCAGGA	-0.116
AAGTTCTG	0.209
ATTCTGCC	-0.118
GGGCGAAA	-0.123
GTTTATCA	0.19
ACGCGTTA	0.134
ACGAGTTG	0.0694
GGAATGCA	-0.15
ATCACCGC	-0.0426
ACCGAGCA	-0.0631
ACTCGCCA	-0.0387
AGAGACTG	-0.0263

Sequence	PBM 8-mer E-score
AGTTAGAT	0.249
AACTAGGC	0.0482
CGCTTCCG	-0.225
AGTTCCCG	-0.168
AGCAAGAA	0.0118
CAGCGATG	-0.174
GAGCCAAC	-0.181
GAGTTGAC	-0.118
ACCGGACT	-0.137
CAGTCCTA	-0.1
GAAACCCC	-0.293
AGGGCTGC	-0.248
CATCAGAA	-0.0278
GGACACGA	-0.163
GGGTTTGA	-0.077
ATTTCGGA	0.179
GTGTGTCA	0.134
CGATCAAC	-0.0799
GCTATATA	0.402
CCCCGCTC	-0.217
ACGGTCCA	-0.12
ATGAGATG	-0.0965
TACACTAA	0.276
ACATCACG	-0.0982
ACCGCCCC	-0.307

Sequence	PBM 8-mer E-score
TAGCTGAA	-0.0283
AGCTTAAG	0.0156
AAAGAGCC	-0.0346
ATGGCCTG	-0.327
CTTTGCTC	-0.0975
GTCTGCAC	-0.0118
CCGGGAGG	-0.293
CGAAATGA	-0.0521
CAGAAGGC	-0.229
CTGTTGGA	0.014
AGACAGAA	-0.0306
ATTGAGTA	0.127
ATTTCATG	0.184
GATATGGC	-0.12
GGAGACTA	-0.0934
AGGATGAC	-0.124
ATGGTCGA	-0.127
ACACGTGT	-0.0859
ACAGATGG	-0.0295
CGGTATTA	0.187
GGAAGAGA	-0.234
CCGCCAGC	-0.258
GAACGTCA	-0.0941
ATCATCGG	-0.0977
ACCCCCAC	-0.242

Sequence	PBM 8-mer E-score
TAAGGGGA	-0.128
ATAACAAT	0.355
ATTGACGC	-0.03
ACTTCGAA	0.247
AGAGTCAT	-0.0526
GCGCGTTA	0.0588
AGCGTCAA	-0.106
CGTGGTCA	-0.0218
ATAAAATG	0.249
AATATTAC	0.372
ACTCTGGC	-0.165
CAGTATCC	-0.22
CGGATAAC	0.0833
GAACCGAC	-0.111
GGGCGCAC	-0.272
CTCCCTAC	-0.109
AAGGACCA	-0.154
ATATCGCA	0.208
AGCGGGAT	-0.138
ACACACAC	0.109
CGAGAATA	0.118
GGATTACA	0.17
CATCGGCA	-0.243
CATCTTGG	-0.216
AGTGATAT	0.256

Sequence	PBM 8-mer E-score
CGAAGTAC	0.097
GAAGGGGC	-0.364
TGAGAACA	0.056
AAACGCGA	0.0593
GTCGCGTA	-0.0332
ATCGCCAT	0.016
ATCCGCTC	-0.0559
ATTAAAAG	0.393
ATAAAGAC	0.241
ACTTATAG	0.251
AAGCGAGT	0.0117
ATGGACAG	-0.12
ATATCTCC	0.137
GTGAAGAA	-0.0121
GGAAATCA	-0.0787
CCCCAAAG	-0.265
AGGTGCAA	-0.0637
GTCGAGAA	-0.0478
AGCGTACT	-0.0455
AAGGCCAG	-0.242
CTACCAAG	-0.272
ATATGTTG	0.359
CAACGAAG	-0.0936
AGACCAAT	0.0439
AGGGCGGG	-0.124

Sequence	PBM 8-mer E-score
TACTTGAA	0.168
GCAGTACA	-0.0133
CCAGTGGG	-0.31
GGTACTTA	0.163
ACCTTTGC	-0.068
ATAGAGTC	-0.0643
CATTGACG	-0.1
CCGTAGCA	-0.197
GAACGAAA	0.111
AGGTTAAC	0.166
CCGTCCGA	-0.211
ACACGTCC	-0.136
AGAGTATG	0.174
CGATACAG	-0.0892
CCAATTTC	0.138
AAGATCGC	-0.0523
CCGGGAAG	-0.197
AAATCGCT	0.0379
CAGTAGCC	-0.125
CCGCCGAG	-0.14
ATCTTACG	0.058
AAGTTTGG	0.161
AATAGAGG	0.127
ATTAACGA	0.246
CGACAACG	-0.11

Sequence	PBM 8-mer E-score
AACTGCGG	0.034
GACAGACA	-0.0128
AACATGTC	-0.0784
ACCGCAAA	-0.0109
ATTCGGGA	0.137
CCATCGTA	-0.295
CCCGGGAA	-0.142
AATTCTTA	0.316
CTGGAGGC	-0.235
AGTTTATC	0.144
CTTTGCCA	-0.0477
ATTGCGGC	-0.014
ATTATCTG	0.355
GAGACCTC	-0.336
CTCGGCGC	-0.223
CACGGTGA	-0.216
CGGCCATA	-0.0816
ACGCAATG	0.0122
AGGTCTTA	-0.121
ATGTAAAG	0.278
CAGCATAG	0.0322
CAGAGTCG	-0.165
CGCCATAG	-0.251
ATAGCACC	-0.166
CTCAGAAA	0.0348

Sequence	PBM 8-mer E-score
CTTACCCC	-0.143
ACTTGTTG	0.199
AAGGAGTG	-0.139
ATGTACCG	0.184
ACCAATAT	0.282
CAGACTAA	-0.00354
CGGCTCTA	-0.0831
AGTACGCA	-0.0531
AAGAGACG	-0.137
CGCCAAGC	-0.272
ACCTCGCA	-0.0477
AACAGCAA	0.124
AACCGTGA	-0.0423
ACACACGC	-0.141
CTGCAACA	-0.0226
CCTGTGTA	-0.0928
ATCTATCA	0.164
AAGATATA	0.419
AGAGATAC	-0.000518
